The results in this text go back to PMC11290676.

Chains of the proteins cited; added tags and fusions are not shown. Lines headed by an entry give the natural chain unless they say otherwise; changes in a name come on top. A line that says so, or that is headed by a name, gives the form on record, which may keep a tag or linker. Residues count along the entry.
UniProt Q91813: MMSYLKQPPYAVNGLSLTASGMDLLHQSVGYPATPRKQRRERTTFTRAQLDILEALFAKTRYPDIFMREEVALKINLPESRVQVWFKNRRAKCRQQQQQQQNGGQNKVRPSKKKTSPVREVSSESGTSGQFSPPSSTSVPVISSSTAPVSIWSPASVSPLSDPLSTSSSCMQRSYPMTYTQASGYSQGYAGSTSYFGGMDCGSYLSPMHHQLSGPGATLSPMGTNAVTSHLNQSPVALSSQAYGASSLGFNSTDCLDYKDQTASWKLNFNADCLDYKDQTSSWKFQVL
Myc-Otx2 ΔAD (region containing the homeodomain and the repression domain, aa 1-184): residues 1-184 of Q91813
Myc-Otx2-4A (nonphosphorylatable mutant of Otx2) (Q91813, form named): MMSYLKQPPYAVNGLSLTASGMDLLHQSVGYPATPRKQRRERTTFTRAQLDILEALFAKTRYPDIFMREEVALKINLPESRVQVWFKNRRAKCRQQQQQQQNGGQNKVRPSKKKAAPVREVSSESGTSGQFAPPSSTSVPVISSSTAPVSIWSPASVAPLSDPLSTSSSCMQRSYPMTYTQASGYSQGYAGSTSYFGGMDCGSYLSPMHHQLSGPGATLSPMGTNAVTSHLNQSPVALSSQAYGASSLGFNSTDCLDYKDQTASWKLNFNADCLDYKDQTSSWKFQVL
Myc-Otx2-4E (phosphomimetic mutant of Otx2) (Q91813, form named): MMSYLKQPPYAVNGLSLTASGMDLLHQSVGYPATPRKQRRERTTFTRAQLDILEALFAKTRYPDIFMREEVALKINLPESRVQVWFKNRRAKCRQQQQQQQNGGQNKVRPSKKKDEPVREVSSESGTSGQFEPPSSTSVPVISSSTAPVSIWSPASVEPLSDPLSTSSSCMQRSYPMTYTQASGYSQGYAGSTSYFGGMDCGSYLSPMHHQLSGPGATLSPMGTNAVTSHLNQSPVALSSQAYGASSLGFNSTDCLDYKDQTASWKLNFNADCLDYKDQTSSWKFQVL
Venus-fused Zbtb11 (Venus-Zbtb11), full-length Zbtb11.S (A0A1L8H8N5, form named): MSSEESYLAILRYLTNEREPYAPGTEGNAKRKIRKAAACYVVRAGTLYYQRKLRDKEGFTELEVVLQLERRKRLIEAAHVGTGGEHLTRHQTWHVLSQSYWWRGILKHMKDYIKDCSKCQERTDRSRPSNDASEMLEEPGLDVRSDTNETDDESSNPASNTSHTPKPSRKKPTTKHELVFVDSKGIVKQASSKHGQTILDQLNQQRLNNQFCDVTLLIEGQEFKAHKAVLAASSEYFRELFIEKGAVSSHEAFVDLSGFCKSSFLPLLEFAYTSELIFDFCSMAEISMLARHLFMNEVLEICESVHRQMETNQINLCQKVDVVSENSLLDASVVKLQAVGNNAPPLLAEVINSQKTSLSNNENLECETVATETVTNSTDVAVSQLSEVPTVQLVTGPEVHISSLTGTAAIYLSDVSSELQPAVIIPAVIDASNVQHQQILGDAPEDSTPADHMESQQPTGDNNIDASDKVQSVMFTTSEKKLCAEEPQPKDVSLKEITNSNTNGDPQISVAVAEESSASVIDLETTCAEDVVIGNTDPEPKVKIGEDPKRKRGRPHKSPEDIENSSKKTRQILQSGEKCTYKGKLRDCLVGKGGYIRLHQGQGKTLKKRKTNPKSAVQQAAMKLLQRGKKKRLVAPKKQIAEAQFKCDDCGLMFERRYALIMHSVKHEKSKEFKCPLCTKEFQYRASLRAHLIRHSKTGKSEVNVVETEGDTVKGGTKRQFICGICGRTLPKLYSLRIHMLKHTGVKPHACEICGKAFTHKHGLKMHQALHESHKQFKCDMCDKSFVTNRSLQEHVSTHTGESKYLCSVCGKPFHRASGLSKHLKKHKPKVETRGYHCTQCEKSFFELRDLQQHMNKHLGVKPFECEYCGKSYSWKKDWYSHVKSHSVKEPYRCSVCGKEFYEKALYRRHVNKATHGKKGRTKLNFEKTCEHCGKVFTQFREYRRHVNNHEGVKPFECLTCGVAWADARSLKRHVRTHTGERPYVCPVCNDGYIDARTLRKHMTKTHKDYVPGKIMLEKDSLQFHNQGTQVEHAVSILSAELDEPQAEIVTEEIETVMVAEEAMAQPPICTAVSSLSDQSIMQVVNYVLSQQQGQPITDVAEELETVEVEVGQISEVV
Venus-Znf (C-terminal region of Zbtb11.S containing the Znf domains, CR2 and CR3, aa 622-1118) (A0A1L8H8N5, form named): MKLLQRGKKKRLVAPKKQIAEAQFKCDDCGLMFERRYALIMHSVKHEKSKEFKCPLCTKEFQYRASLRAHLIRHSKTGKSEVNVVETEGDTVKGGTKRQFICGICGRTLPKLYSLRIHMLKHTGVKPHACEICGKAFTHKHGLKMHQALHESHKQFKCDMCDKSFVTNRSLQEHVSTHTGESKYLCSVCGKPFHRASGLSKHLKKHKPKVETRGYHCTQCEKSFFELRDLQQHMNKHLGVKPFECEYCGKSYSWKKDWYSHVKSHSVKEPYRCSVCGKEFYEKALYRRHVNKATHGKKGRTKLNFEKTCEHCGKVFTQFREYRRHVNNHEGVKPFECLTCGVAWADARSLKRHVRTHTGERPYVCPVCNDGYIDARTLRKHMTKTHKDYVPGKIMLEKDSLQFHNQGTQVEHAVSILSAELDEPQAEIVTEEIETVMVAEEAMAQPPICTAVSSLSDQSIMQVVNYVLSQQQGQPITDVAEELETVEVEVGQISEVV
Venus-NLS-BTB (N-terminal region of Zbtb11.S including the HHCC motif and BTB domain, aa 1-580, with SV40 large T NLS) (A0A1L8H8N5, form named): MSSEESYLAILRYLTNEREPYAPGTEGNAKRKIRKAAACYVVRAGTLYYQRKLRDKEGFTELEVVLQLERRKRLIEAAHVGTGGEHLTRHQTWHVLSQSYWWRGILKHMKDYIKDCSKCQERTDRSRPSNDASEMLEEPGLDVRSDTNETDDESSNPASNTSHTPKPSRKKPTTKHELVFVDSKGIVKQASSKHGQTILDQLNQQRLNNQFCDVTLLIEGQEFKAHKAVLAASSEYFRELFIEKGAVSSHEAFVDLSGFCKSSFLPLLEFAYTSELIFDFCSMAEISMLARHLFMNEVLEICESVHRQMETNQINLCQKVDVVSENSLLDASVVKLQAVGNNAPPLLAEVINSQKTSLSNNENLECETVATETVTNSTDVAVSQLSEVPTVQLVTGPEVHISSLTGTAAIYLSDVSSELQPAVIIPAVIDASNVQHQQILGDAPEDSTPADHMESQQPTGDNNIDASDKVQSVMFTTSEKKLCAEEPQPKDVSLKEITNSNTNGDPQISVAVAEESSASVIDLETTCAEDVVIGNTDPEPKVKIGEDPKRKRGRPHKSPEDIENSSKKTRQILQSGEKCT

Test in all cases: co-IP; lysates of mRNA-injected embryos at gastrula stages (10.5-11); immunoprecipitated with anti-Myc antibody (2 h, 4°C) and protein G- or protein A-agarose beads; western blot with anti-GFP, anti-HA or anti-Myc; in Fig 8B with co-expressed Venus-Zbtb11 or Venus-NLS
For assay [1], the target named is Myc-Otx2-4A (nonphosphorylatable mutant of Otx2) (UniProt Q91813).
Assay [2] addresses Myc-Otx2-4E (phosphomimetic mutant of Otx2) (UniProt Q91813).
The target in assay [3] is Myc-tagged Otx2 (Myc-Otx2), full length, wild type (UniProt Q91813).
The target of assay [4] is Myc-tagged Zbtb11 (Myc-Zbtb11), full-length Zbtb11.S (X. laevis).
Assay [5] has as its target Myc-Otx2 ΔAD (region containing the homeodomain and the repression domain, aa 1-184) (UniProt Q91813).

No constants are given. Whether binding was seen depends on the method and setting. Binding seen in cells or lysates may run through a third protein. Some results given as binding are weak or reduced against the parent protein; the word gives no strength.

For “HA-tagged Zbtb11 (HA-Zbtb11), full-length Zbtb11.S (from UniProt A0A1L8H8N5 1-1118)”, the binding result in assay [1] is on record as “binds weakly”; in assay [2] it was “binds”; in assay [3], “binds”.

On to “Venus-Znf (C-terminal region of Zbtb11.S containing the Znf domains, CR2 and CR3, aa 622-1118) (from UniProt A0A1L8H8N5 622-1118) (domain or fragment)”, for which the binding entry in assay [3] and in assay [4] was “binds” each time.

“Venus-NLS-BTB (N-terminal region of Zbtb11.S including the HHCC motif and BTB domain, aa 1-580, with SV40 large T NLS) (from UniProt A0A1L8H8N5 1-580) (domain or fragment)”: the binding result was “no binding” in assay [3] and “binds” in assay [4].

“Venus-fused Zbtb11 (Venus-Zbtb11), full-length Zbtb11.S (from UniProt A0A1L8H8N5 1-1118)”: the binding result in assay [5], in assay [3] and in assay [4] was “binds” throughout.
